{"source": "PubChem BioAssay AID485344", "about": "(National Center for Advancing Translational Sciences (NCATS), 2010)", "note": "Among all 340,000 compounds or so, about 6,900 (2%) were called active. No stated cut-off is given here; in the data, active means inhibition above about 30%; inactive means below that, where a call was filed. The list shows a part of the results, in another mix than the full data. The source gives no active or inactive call for entries shown without one."}
{"molecular_target": "D(2) dopamine receptor (Homo sapiens) (UniProt P14416)", "sequence (P14416 whole entry, looked up)": "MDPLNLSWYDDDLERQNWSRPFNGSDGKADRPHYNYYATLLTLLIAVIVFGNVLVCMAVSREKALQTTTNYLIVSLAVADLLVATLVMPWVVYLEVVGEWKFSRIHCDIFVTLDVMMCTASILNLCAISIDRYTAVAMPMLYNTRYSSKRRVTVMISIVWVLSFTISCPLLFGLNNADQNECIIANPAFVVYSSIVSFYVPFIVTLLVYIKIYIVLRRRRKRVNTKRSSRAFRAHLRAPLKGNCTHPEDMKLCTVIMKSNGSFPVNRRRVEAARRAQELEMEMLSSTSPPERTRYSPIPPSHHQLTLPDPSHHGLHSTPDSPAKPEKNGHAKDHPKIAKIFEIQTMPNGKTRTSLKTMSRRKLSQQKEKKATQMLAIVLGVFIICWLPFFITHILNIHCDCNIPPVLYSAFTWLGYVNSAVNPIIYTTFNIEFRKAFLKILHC", "experiment": "HTS Assay for Allosteric Antagonists of the Human D2 Dopamine Receptor: Primary Screen for Antagonists; further: 0% is about no effect", "settings": "HEK293 TREx D2 cells, calcium flux, dopamine EC80; at 10 µM; stronger effect = higher value", "how_it_was_run": "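Inhibition of EC80 dopamine-driven calcium flux, recorded kinetically, defines activity here; cells are a tetracycline-induced HEK293 T-REx line expressing force-coupled D2.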"}
{"smiles": "COc1cc(NC(=O)CCn2nc(C)cc2C)cc(OC)c1OC", "inhibition": "-5.44%"}
{"smiles": "CCC1CCCCN1CCCNC(=O)c1cn(C)c2ccc(S(=O)(=O)N(C)C3CCCCC3)cc2c1=O", "note": "(stereo unspecified)", "inhibition": "-23.5%"}
{"smiles": "COc1ccc(-c2cc(C(=O)Nc3ccc4c(c3)OCO4)no2)cc1", "inhibition": "15%"}
{"smiles": "COc1cccc(N2CCN(C(=O)c3cccn3-c3nnc(N4CCCCC4)s3)CC2)c1", "inhibition": "8.58%"}
{"smiles": "CCSc1ccccc1C(=O)N1CCN(c2nc3ccccc3s2)CC1", "inhibition": "16.7%"}
{"smiles": "Cc1ccc(C)c(NC(=O)CSc2nc3ccccc3nc2N2CCOCC2)c1", "inhibition": "2.65%"}
{"smiles": "CC(C)(C)OC(=O)N1CCC(c2c(C(=O)N3CCCCC3)cnn2-c2ccc(F)cc2)CC1", "inhibition": "19.5%"}
{"smiles": "COc1cccc(NC(=O)c2oc3ccc(S(=O)(=O)N(C)C4CCCCC4)cc3c2C)c1", "inhibition": "12.8%"}
{"smiles": "Nc1c(Cl)c(Cl)nc(C(=O)OCC(=O)NC2CCCCC2)c1Cl", "inhibition": "active: 56.6%"}
{"smiles": "COC(=O)c1ccc(NC(=O)c2cnn(-c3ccc(Cl)cc3)c2C2CCN(C(=O)OC(C)(C)C)CC2)cc1", "inhibition": "-3.34%"}
{"smiles": "COc1ccccc1C(=O)Nc1cccc(OCc2cc(=O)n3ccccc3n2)c1", "inhibition": "13.7%"}
{"smiles": "CCc1nn(CC(=O)NCCc2ccc(Cl)cc2)c(=O)c2cc3c(OC)cccc3n12", "inhibition": "13.5%"}
{"smiles": "Cc1cc2oc(C(=O)N(Cc3ccc(Cl)cc3)Cc3ccco3)c(C)c2cc1Cl", "inhibition": "-4.79%"}
{"smiles": "Cc1cc(C)c(NC(=O)c2cc(C)nc3c2c(C)nn3-c2cccc(F)c2)c(C)c1", "inhibition": "7.15%"}
{"smiles": "CCN(CC)C(=O)c1c(NC(=O)c2ccccc2F)sc2c1CCC(C(C)(C)C)C2", "note": "(stereo unspecified)", "inhibition": "6.39%"}
{"smiles": "CCc1ccc(-c2nn(-c3ccc(OC)cc3)c3c2cnc2ccc(OC)cc23)cc1", "inhibition": "-15.8%"}
{"smiles": "CCc1ccc(NC(=O)C2CCCN(S(=O)(=O)c3ccc4c(c3)oc(=O)n4C)C2)cc1", "note": "(stereo unspecified)", "inhibition": "-3.87%"}
{"smiles": "COCCCNC(=O)CCCn1c(SCC(=O)c2ccc(Br)cc2)nc2c(sc3ccccc32)c1=O", "inhibition": "22.3%"}
{"smiles": "Cc1ccc(C(=O)NCC(c2ccc(Cl)cc2)N2CCCCC2)cc1", "note": "(stereo unspecified)", "inhibition": "17.4%"}
{"smiles": "CCOc1ccc(C(=O)N2CC(=O)Nc3ccc(C)cc3C2c2ccc(F)cc2)cc1OCC", "note": "(stereo unspecified)", "inhibition": "-9.43%"}
{"smiles": "CCOc1ccc(-c2nnc(NC(=O)Cc3ccc(OC)cc3)o2)cc1", "inhibition": "active: 35%"}
{"smiles": "Cc1ccc(Cl)c2sc(NC(=O)c3ccc(S(=O)(=O)N4CCCC4)cc3)nc12", "inhibition": "-14.7%"}
{"smiles": "COc1cccc(CNC(=O)c2cccc(N3CCCS3(=O)=O)c2)c1", "inhibition": "3.02%"}
{"smiles": "Cc1cc(Nc2ccccc2C)c2cccc(C)c2n1", "inhibition": "4.26%"}
{"smiles": "CCC(C)n1c(SCC(=O)Nc2ccccc2C(=O)OC)nc2ccsc2c1=O", "note": "(stereo unspecified)", "inhibition": "0.129%"}
{"smiles": "O=C(NCc1c(-n2cccc2)sc2c1CCCC2)Nc1cccc(C(F)(F)F)c1", "inhibition": "-8.36%"}
{"smiles": "CCN(CC)S(=O)(=O)c1ccc(C(=O)OCn2c(SC)nnc(C)c2=O)cc1", "inhibition": "active: 35.4%"}
{"smiles": "CC(=O)c1ccc(N2CCN(C(=O)Nc3ccc(C)cc3)CC2)cc1", "inhibition": "5.68%"}
{"smiles": "Cc1ccc(Nc2c(-c3ccc(N4CCOCC4)cc3)nc3ccc(C)cn23)cc1", "inhibition": "6.93%"}
{"smiles": "COc1cc(C(=O)Nc2ccc3nc4n(c(=O)c3c2)CCCCC4)cc(OC)c1OC", "inhibition": "-2.38%"}
{"smiles": "Cn1c(=O)oc2cc(S(=O)(=O)NC(CC(=O)O)c3cccc(Br)c3)ccc21", "note": "(stereo unspecified)", "inhibition": "3.73%"}
{"smiles": "COc1ccc(NC(=O)CSc2nnc(N)s2)cc1", "inhibition": "-4.5%"}
{"smiles": "O=C(Nc1ccc(-c2nc3cc(Cl)ccc3o2)cc1)c1cc(Br)ccc1Cl", "inhibition": "3.08%"}
{"smiles": "CCN(C(=O)CSc1nc2ccccc2c2nc(CCn3c(C)nc4ccccc43)nn12)c1cccc(C)c1", "inhibition": "-8.82%"}
{"smiles": "CCN(CC)S(=O)(=O)c1ccc2c(c1)N(CC(=O)N1CCN(c3cccc(C)c3)C(C)C1)C(=O)CO2", "note": "(stereo unspecified)", "inhibition": "-9.57%"}
{"smiles": "COc1cc(C(=O)NC2(C(F)(F)F)C(=O)NC(C)=C2C#N)cc(OC)c1OC", "note": "(stereo unspecified)", "inhibition": "1.82%"}
{"smiles": "Cc1cccc(NC(=O)CCn2cnnn2)c1", "inhibition": "-13.8%"}
{"smiles": "COc1ccc(-c2csc3nc(-c4ccc(Cl)cc4)oc(=O)c23)cc1", "inhibition": "7.48%"}
{"smiles": "CCc1cccc(NC(=O)c2cnc(N3CCOCC3)c3ccccc23)c1", "inhibition": "-2.21%"}
{"smiles": "Cc1c(C(=O)N2CCCC2)oc2c1-c1nn(CC(=O)NCc3ccc(OC(C)C)cc3)cc1CC2", "inhibition": "-7.09%"}
{"smiles": "CN(CC(=O)Nc1ccc(OC(F)(F)F)cc1)S(=O)(=O)c1ccc2c(c1)CCC(=O)N2", "inhibition": "10.2%"}
{"smiles": "Cc1ccc2occ(-c3cc(-c4ccccc4)nc4c3COc3ccccc3-4)c(=O)c2c1", "inhibition": "7.61%"}
{"smiles": "CCOC(=O)c1cc(-c2ccccc2)n(CCCC(=O)Nc2ccc(C)c(Cl)c2)c1C", "inhibition": "0.79%"}
{"smiles": "Cc1ccc(C)c(NC(=O)CSc2nc3nccnc3c(=O)n2CCc2c[nH]c3ccccc23)c1", "inhibition": "21.4%"}
{"smiles": "COc1ccc(N2CC(C(=O)NCCS(=O)(=O)N3CCN(c4ccccc4)CC3)CC2=O)cc1", "note": "(stereo unspecified)", "inhibition": "-6.25%"}
{"smiles": "CC(C)OCCCNC(=O)c1cn(C)c2ccc(S(=O)(=O)N(C)C3CCCCC3)cc2c1=O", "inhibition": "10.3%"}
{"smiles": "CC(C)CCn1nnnc1CN1CCN(c2ccccc2)CC1", "inhibition": "active: 49.9%"}
{"smiles": "Cc1ccc2c(=O)c(C(=O)c3ccccc3)cn(CC(=O)NCc3ccccc3)c2n1", "inhibition": "-17.9%"}
{"smiles": "CCOc1ccc(NC(=O)CSc2ncc(S(=O)(=O)c3ccc(F)c(C)c3)c(=O)[nH]2)cc1", "inhibition": "1.49%"}
{"smiles": "Cc1ccc(CNc2nc(-c3ccco3)nn2C(=O)c2ccccc2[N+](=O)[O-])cc1", "inhibition": "5.39%"}
{"smiles": "CCS(=O)(=O)Nc1ccc2[nH]c(=O)[nH]c2c1", "inhibition": "active: 32.8%"}
{"smiles": "COc1ccccc1N1CCN(c2nc3c(S(=O)(=O)c4ccccc4)nnn3c3ccc(Cl)cc23)CC1", "inhibition": "1.9%"}
{"smiles": "CCOC(=O)c1scc(-c2ccccc2)c1S(=O)(=O)Nc1ccccc1OC", "inhibition": "12.4%"}
{"smiles": "N#Cc1nc(-c2ccc(COc3ccc(Cl)cc3)o2)oc1N1CCCCC1", "inhibition": "1.21%"}
{"smiles": "COc1ccc(CNS(=O)(=O)c2ccc(C(=O)N(C)C)s2)cc1", "inhibition": "-7.4%"}
{"smiles": "O=C1c2[nH]nc(-c3ccccc3O)c2C(c2cccc(OCc3ccccc3)c2)N1CCCO", "note": "(stereo unspecified)", "inhibition": "-6.94%"}
{"smiles": "Fc1ccc(N2CCN(Cc3nnc(-c4ccccc4Cl)o3)CC2)cc1", "inhibition": "-16.2%"}
{"smiles": "COc1ccc(Cn2c(SCc3ccc(C(=O)NC4CCCCC4)cc3)nc3ccncc32)cc1", "inhibition": "2.93%"}
{"smiles": "CCc1cccc(C)c1Nc1c(-c2ccc(F)cc2)nc2sccn12", "inhibition": "-15.8%"}
{"smiles": "CCOC(=O)c1sc2ccccc2c1S(=O)(=O)Nc1cc(OC)ccc1OC", "inhibition": "1.6%"}
{"smiles": "COc1ccc(CNCc2c(C(=O)O)c(C)n(Cc3ccccc3C)c2C)cc1OC", "inhibition": "-3.8%"}
